Measured values taken from the supplement of paper PMC11417369.
The list shows a part of the results.

test system: PF3D7_0420300 AP2 domain 1 (GST-tagged); assay: gcPBM binding intensity (ln(normalized median fluorescence intensity)); higher = stronger DNA binding
Outline: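 Each value is the highest Masliner-normalised natural-log median intensity across replicate spots of either orientation of a probe. The probes were primer-extended double-stranded 36-bp intergenic genomic sequences on an Agilent 4 × 180k array, alongside negative controls, exposed for 1 h to GST-tagged P. falciparum DNA-binding domains expressed in E. coli. Bound protein was picked up with Alexa488 anti-GST antibody and scanned at 488 nm.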

| Sequence | gcPBM binding intensity (ln) |
| --- | --- |
| GATATATATATTCACACACACATGGAAATATATATA [CACACA_site382] | 9.79 |
| AACTTTTTACAAACAGGTACGCATATATATATATAT [XGTACX_site5081] | 9.33 |
| AAAATTTAAAAATGGACACACACAAAAAATAATACT [CACACA_site7972] | 10.1 |
| AATAATTATTTGTATAGTACAATATACAAAAGATGA [XGTACX_site4312] | 9.31 |
| CACATACACATACAAACACACATTATATATATATAT [CACACA_site8460] | 9.62 |
| CATCCATTATTAATATGTACATATGTATATATATTA [XGTACX_site1318] | 9.25 |
| GAAAAAAAAAAAAGGGGTACATTTATTTTATCAATA [XGTACX_site8331] | 8.99 |
| TTTTTTTTTTTTTTTTTTTTTTTCTTTATTTTTTTT [CACACA_negctrl_site703] | 8.32 |
| TAAACACCCATATAAACACACATATAAACACCCATA [CACACA_site5382] | 9.84 |
| TTTATTTATTTTTAACGTACGCACACATATAAATAT [XGTACX_site4042] | 9.38 |
| TATTTTTAATAAAAACGTACGGAATACAAAAAAAAT [XGTACX_site3477] | 9.4 |
| TATTATAAAATATACACATGCAAAAACAAAATTTAC [TGCATGCA_site1051] | 9.55 |
| TATATACATTGGTATACATGCATTCTCTTTCATACA [TGCATGCA_site734] | 9.31 |
| TAAAATTTATAAACTACACACATATAAATAGTAATA [CACACA_site7708] | 9.67 |
| ACAGAAAAAAGACACACACACATAATATACATACAT [CACACA_site6991] | 10.2 |
| ATTTTTTAAATGAGGCGTACACAAAAATATAATTAC [XGTACX_site7087] | 9.46 |
| TATATATATATATATACACACACACTAATAAAAAAA [CACACA_site8426] | 10 |
| CTTAGATATAAAAATTGTACATACATATTTTTGACA [XGTACX_site2107] | 9.05 |
| TTTTTTTCGTAAAAAAAAATAATTATTAAATGAAGG [TGCATGCA_negctrl_site212] | 8.66 |
| GTAAATATTAATAAAAGTACATATGTAGCATATGGA [XGTACX_site5219] | 9.33 |
| CCTTTTTTATTTACAACACACGTAAAGGTTCAAATA [CACACA_site1741] | 9.24 |
| ATATATATATATATGTGTACATATTTTTTTTTTTTT [XGTACX_site3425] | 9.15 |

| Sequence | gcPBM binding intensity (ln) |
| --- | --- |
| AGAAAAAAAAAAAATGCACACATTTTCATTGTCAGT [CACACA_site1935] | 9.28 |
| AAAAAACACAGACATACACACAAAAAGGTTATAAAT [CACACA_site4222] | 10.1 |
| TTAAACATATATTAAGCACACACAAACAAAAAAACA [CACACA_site8816] | 9.9 |
| AACATATTTTTTTGTTGTACTTACAATTATAAGCAT [XGTACX_site3056] | 9.21 |
| TATACCAAATATATGGGTACACAAATATGTTTATTC [XGTACX_site8932] | 9.24 |
| TAATTAATCGATTTACGCACATGAACAAAAGCACAT [CACACA_negctrl_site1287] | 9.39 |
| TATAAAGCAACTGAAACACACAAATTTTTTTTTTTT [CACACA_site3218] | 9.31 |
| ACTATTTTCTTCAAAACATGCACCACATAAACATAA [TGCATGCA_site200] | 9.18 |
| ATTATTTATTTATGTGTGCGCATGTGTGTAAATATT | 9.93 |
| TTAAAATTAAAAATAGGTACACATATGAACAAGGAC [XGTACX_site1180] | 9.81 |
| TTATATGATATATGACGTACATATTAATAACATCTA [XGTACX_site6716] | 9.14 |
| TGTAATATTTTATAAAGTACATTATAATATAATTCA [XGTACX_site2961] | 9 |
| TTTTTTTCTATAATACACCAGAAAAAAAAATTAAAA [TGCATGCA_negctrl_site257] | 8.66 |
| TTGTTCCAATAAAATCGTACAATTAAACAACCAAAC [XGTACX_site5759] | 9.45 |
| CAATCAACAAAACATACACACACATATATATATATA [CACACA_site8979] | 9.74 |
| AGATTGAAATATAGTTGTACAAATATTTTAAAACAT [XGTACX_site3026] | 9.25 |
| CATATCTCTTATTAATGTACATTTTTAAAAGTAAAT [XGTACX_site2847] | 8.98 |
| CTTTTTTTTATGAACAGTACAGAAATATATATATAC [XGTACX_site5613] | 9.11 |
| TTTATATAATGGAAAAGTACTCAGGAAATTTATACA [XGTACX_site3635] | 9.16 |
| CAAGAACAAAAAATATGTACATATAATTATATATAT [XGTACX_site2082] | 9.47 |
| TATCCTACATTAACAAGTACAAAGAGATCCTACGTA [XGTACX_site4252] | 9.03 |
| AAGAATATATAGGACACACATACAATAATAAATATA [CACACA_site4119] | 9.74 |

| Sequence | gcPBM binding intensity (ln) |
| --- | --- |
| AACGCCACTTCAATGGCACACACCAATTATTTTTCA [CACACA_site1026] | 9.35 |
| TTTCTCCATATTAAAGTGCATTAATAACAAAAATAA [GTGCAC_site9934] | 8.87 |
| AAAAAAAAAAAAAATATACACACTAATATATTTTTT [CACACA_site815] | 9.33 |
| ATATATATATTAATTACACACAAAAAAAAAAAAAAA [CACACA_site1165] | 9.51 |
| TCATTCGAATAAATTGCACACATGACATCCGTTGTA [CACACA_site2587] | 9.37 |
| TATATACAGATATATACACACATATTTATATTTTAT [CACACA_site7734] | 9.48 |
| GTATAGAGAAAAAACTGTACTTTATATAAATATTTA [XGTACX_site3972] | 9.06 |
| TATTAATAATATAATAGTACTTTCACTGTAAATTTA [XGTACX_site6419] | 9.08 |
| TAATTTATAAATAATTGTACATAGTTTATTTAGATT [XGTACX_site4599] | 9.09 |
| TAATTATAAAAATAAAACAACCAAATTTGTTATATA [CACACA_negctrl_site750] | 9.19 |
| ATATATATAAAATAAAGTACCCGTAAAACCTATATG [XGTACX_site6937] | 9.54 |
| AAAAAAAAAAAAAAAAAATAATAAAAAATAAAAAAA [GTGCAC_negctrl_site341] | 9.18 |
| TATGTTAATCCTATTTGTACATATAATCGAATTAAA [XGTACX_site7090] | 8.88 |
| GACGACTATATTAATTGTACTCAATTTAAGCATAAT [XGTACX_site2750] | 9.16 |
| GAAAGGAAAAGTTGAACACACAAAGTAAACTATAAG [CACACA_site3535] | 9.54 |
| ATATATAATAATATATGTACATAATATTTTTTTTTT [XGTACX_site1941] | 8.99 |
| TAATGAAGATATATAACACACAAAAGTTATAAATAT [CACACA_site6678] | 9.61 |
| GCCATTAATTTATACACACACATTAAAATTTTTTAT [CACACA_site4575] | 9.78 |
| GCTATAAATACAGACGCACACATATACATACATATA [CACACA_site3329] | 9.59 |
| TACAAAATAGTTTACACACACATATATATACATATA [CACACA_site2615] | 9.82 |
| TTTATTTTTATGGTCACACATATTTTTAAAACTATA [CACACA_site4372] | 9.29 |
| TTTTTTTTTTTATATACTGGAAATATATTTAATTTA [GTGCAC_negctrl_site250] | 9.01 |

| Sequence | gcPBM binding intensity (ln) |
| --- | --- |
| CACCCATAGAAACACACACACGCATAAAAAAAAAAA [CACACA_site1513] | 9.71 |
| TAAAAACAAAAATGCACACATAATAAGCATATGTAT [CACACA_site3469] | 9.55 |
| TATTCTAATATTTATACACACATAACTTTGATAAAT [CACACA_site6418] | 9.42 |
| ATTAATTATTGTAATTGTACATTTTATATATATCCA [XGTACX_site2105] | 9.26 |
| TTTCTTGGGAGACATGCATGTACCAGAACAAAATAA [TGCATGCA_site272] | 9.24 |
| TATATATAGCATATTTCACACACACCGAATGAATAT [CACACA_site9182] | 9.83 |
| TTATCCTTGTAACAATGTACACATTATTTAATACTT [XGTACX_site1830] | 9.29 |
| GCATAAACGGATAATTAATTATATTATATTATATCA [CACACA_negctrl_site1519] | 9.08 |
| TCGTGAATGATTTAAGTACACACCGGTATTTATTCA [CACACA_site1564] | 9.46 |
| ATTTATTTATATATATTATTTGTTTTAATTTACTTA [XGTACX_negctrl_site246] | 9.21 |
| TATTGTTGTCTTTACACATGCAACAAAAGAAGAAAA [TGCATGCA_site911] | 9.14 |
| CATACAGATGGACACACACACACACCCACAGACAAA [CACACA_site4431] | 10.1 |
| TTTTTTTTTTGATGCACACACCTGAACGAGTTAATA [CACACA_site4329] | 9.56 |
| TTCATAAGAAGGAACTGTACATATTTTTCATTTTTT [XGTACX_site6770] | 9.15 |
| AACAGGTCATAATTTACACACTATATATCTTATTAT [CACACA_site6461] | 9.72 |
| CGATTTTTTTTTTATTGTACTTGCTCGCATGCAATA [XGTACX_site4727] | 9.07 |
| TGTATACCTTAATATACACACATACAGATATATATA [CACACA_site4860] | 9.49 |
| TACAATCTTTCATTATGTACTTAACATTTTTTCTGT [XGTACX_site8752] | 9.39 |
| TTATATGTATATATATGTATATATATATATATATAG [TGCATGCA_negctrl_site461] | 8.98 |
| TGTTTTATTTAGAAGGTGCACATTAATATTAAATAA | 9.04 |
| ATATGCATTTTTATACGTACATATTTCTTTTCGTTA [XGTACX_site1497] | 9.52 |
| ACAAAAGGGGAATACACACACATATATAAATAAATA [CACACA_site7111] | 9.84 |
